Screen size: about 150,000 compounds; about 540 (0.36%) showed an effect of 50% or more. This is one part of the list.
Each compound was assayed on Plasmodium falciparum (assay: Primary screen in NF54 nanoGlo assay, in single point, at 2uM, 72h; a lower Z score goes with more inhibition). Details: timepoint 72 hour.
Format: functional, Erythrocyte

Row | Structure (SMILES) | % Inhibition [%] | Z score
1 | COCC1(C)CCN(C(=O)[C@@H](C)Cc2c(C)noc2C)CC1 | -10 | 1.07
2 | CC(C)CCn1cc([C@H](C(=O)O)N(C)Cc2ccc3c(c2)CN(C)C3)cn1 | -7 | 1.37
3 | CN(Cc1nc[nH]n1)Cc1ccccc1S(N)(=O)=O | -3 | 0.46
4 | COC(=O)C1CCN(C(=O)C[C@H](C)Nc2cc(C)cc(C)c2)CC1 | -8 | 1.13
5 | COc1cc(C(=O)N(Cc2ccccn2)c2ccc(F)cc2F)on1 | 3 | -0.49
6 | Cn1nnc(CN2CCc3c(cccc3NS(C)(=O)=O)C2)n1 | -10 | 1.83
7 | CC[C@H](NC(=O)c1cnn(CC)c1)c1cccc(C)n1 | 14 | -1.84
8 | O=C(NCCc1cccnc1)[C@H]1CCCN(c2nnc3ccc(C(F)(F)F)cn23)C1 | -14 | 1.58
9 | CC1(C2(Nc3cc(C#N)ncn3)CC2)CC1 | -3 | 0.67
10 | CC(NC(=O)C(C)N1CCCC1c1ccc2c(c1)OCCCO2)c1ccc(F)cc1 (stereo not drawn) | 18 | -2.43
11 | Cc1nc2c(s1)[C@@H](N(C)CCOc1ccc(C(=O)O)cc1Cl)CCC2 | 6 | -1.03
12 | CNC(=O)CN1CCC(NC(=O)c2ccc(-c3ccc(C)nn3)cc2)CC1 | -4 | 0.51
13 | CCOc1cc(CNn2nnnc2N)cc(Br)c1OCC(=O)NC1CCCCC1 | -3 | 0.36
14 | CS(=O)(=O)CCN(CC1CC1)C1CCCCC1 | 14 | -1.64
15 | Cc1nnc(CN[C@H](c2ncc(C)s2)C2CC2)o1 | -10 | 1.12
16 | CCOC(=O)c1cn(Cc2c(F)cccc2Cl)c2nc(C)ccc2c1=O | 1 | -0.19
17 | CC(C)(CNC(=O)c1ccccc1)CNC1=NS(=O)(=O)c2ccccc21 | 31 | -3.46
18 | Cc1ccccc1-c1ncc(-c2nccn2CCS(=O)(=O)N(C)C)s1 | -10 | 1.82
19 | CC(C)[C@H](NC(=O)c1ccc(-n2cnnn2)cc1)c1nc2ccccc2n1C | -9 | 1.21
20 | CCc1ccccc1C(N)CNC(=O)N1CCCC(OC)CC1 (stereo not drawn) | -8 | 1.27
21 | Cc1n[nH]cc1CN(C)Cc1cnc(N2CCOCC2)nc1 | 8 | -1.23
22 | CCC(=O)Nc1ccc(F)c(NC(=O)N[C@@H](C)Cn2nc(C)cc2C)c1 | 6 | -1.09
23 | Cc1nn(C)cc1C(C)NC(=O)N1CCCC1Cc1ccc(F)cc1 (stereo not drawn) | -13 | 2.1
24 | Cc1noc(C)c1C(=O)NCc1ccc(N2CCCCC2)nc1 | 13 | -1.67
25 | CN(C)C(=O)c1cncc(NCCCC[C@H]2CCCO2)n1 | -1 | 0.13
26 | Cc1ccncc1C(=O)N(C)[C@@H](C)CC(N)=O | -1 | 0.19
27 | CCc1nn(-c2ccc(OC)cc2)c(Oc2ccc(F)cc2F)c1CN(CCOC)C(=O)c1ccco1 | 8 | -1.36

Row | Structure (SMILES) | % Inhibition [%] | Z score
28 | Cc1nonc1CC(=O)NCCCn1ccnn1 | -4 | 0.49
29 | O=C(c1ccc(Br)o1)N1CC(N2CCCC2)C1 | -11 | 1.74
30 | O=S1(=O)CC[C@H](N(CCO)Cc2c[nH]nc2-c2ccc(-c3ccccc3)cc2)C1 | -1 | 0.1
31 | CN1CCN2CCN(Cc3ccc(Cn4cccn4)cc3)C[C@H]2C1=O | -7 | 1.07
32 | CCCCN1C(=O)[C@@H]2C[C@@H](O)CN2C2(CN(CC(C)C)C2)C1=O | -10 | 1.82
33 | O=S(=O)(c1ccc(N2CCOCC2)c2nonc12)N1CCOCC1 | -7 | 1.25
34 | O=c1[nH]c2ccccc2n1C1CCN(S(=O)(=O)c2ccc(F)cc2)CC1 | 7 | -0.82
35 | CCOc1cncc(N[C@H]2c3ccccc3C[C@H]2O)n1 | -3 | 0.29
36 | O=C(NCc1ccc(Cl)s1)N1CCS(=O)(=O)CC1 | -2 | 0.31
37 | C=CCN1CC[C@H](N(C)S(=O)(=O)CCC(C)(C)C)C1=O | 2 | -0.35
38 | N#Cc1ccc(NC2CC2)c(NC(=O)CS(=O)(=O)Cc2cccc(Br)c2)c1 | -9 | 1.32
39 | CC(NC(=O)C1CCCO1)C1CCCO1 (stereo not drawn) | -4 | 0.56
40 | CC[C@H]1CCCCN1C(=O)Cn1c(=O)sc2c(C)cccc21 | 0 | 0.05
41 | C[C@@]1(C(F)F)CN(CCOc2ccc(C(=O)O)cc2Cl)CCO1 | -2 | 0.35
42 | CCc1nsc(N2CCO[C@@H](C)C2)n1 | -17 | 2.06
43 | Cn1c(=O)c(C(=O)N2CCN(c3ccc(F)cc3)CC2)cc2cccnc21 | -14 | 1.85
44 | CC(C)(C)n1ncc2c(NC3(CO)CCCC3)ncnc21 | -9 | 0.9
45 | CCCCNC(=O)NC[C@@H]1CCCC[C@@H]1N1CCOCC1 | -2 | 0.32
46 | COCCn1nnnc1NC(=O)C1CCN(c2ccncc2C)CC1 | -10 | 1.74
47 | Cn1c(CO)nnc1[C@H]1C[C@H](Nc2ncccc2C(=O)c2nccs2)C1 | -18 | 1.99
48 | CCOCCS(=O)(=O)NC(=O)c1cccc(C)n1 | -6 | 0.8
49 | COc1ccc(CC(=O)Nc2nnc([C@H]3CC(=O)N(c4ccc(OC(F)(F)F)cc4)C3)o2)cc1 | 11 | -1.66
50 | CC(C)c1ocnc1C(=O)NCc1cc2n(n1)CCN(S(C)(=O)=O)C2 | -1 | 0.15
51 | CC(C)N1CC2(CCN(C(=O)Nc3ccc4c(c3)OCCO4)CC2)[C@H]1c1ccccc1 | 5 | -0.83
52 | CCS(=O)(=O)N1CCC[C@H](C(=O)NOCc2cccc(C)n2)C1 | -3 | 0.5
53 | CN(Cc1ccc(F)cc1)C(=O)C[C@]1(c2cccc(F)c2)CC(=O)N(Cc2cccnc2)C1=O | -13 | 1.83
54 | O=S(=O)(c1cccs1)N1CC[C@H](Nc2cccnc2)C1 | -12 | 1.57

From ChEMBL document CHEMBL4888484, “Replenishing the malaria drug discovery pipeline: Screening and hit evaluation of the MMV Hit Generation Library 1 (HGL1) against asexual blood stage Plasmodium falciparum ,using a nano luciferase reporter read-out” (2022)
